Measured values published in the supplement of paper PMC8728848.
The list shows a part of the results.

How the values were obtained:
Test in all cases: glycan array binding signal (z-score within array); higher = stronger binding
Settings in all cases: glycan notation: IUPAC condensed, linker removed
[1] = target: Fuc(a1-2)Gal(b1-4)GlcNAc(b1-3)Gal(b1-4)GlcNAc
In short: (§1)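 Glycan array binding is given as a within-array Z-score, which can be read as non-binding when negative. The arrays, 3228 of them, came from the Consortium for Functional Glycomics database and were retained only where the protein sequence was available. Z-scores were averaged across arrays of the same protein sequence at different concentrations or buffers and across linkers.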

[2] = target: Fuc(a1-2)Gal(b1-4)GlcNAc(b1-3)Gal(b1-4)GlcNAc(b1-2)Man(a1-3)[Fuc(a1-2)Gal(b1-4)GlcNAc(b1-3)Gal(b1-4)GlcNAc(b1-2)Man(a1-6)]Man(b1-4)GlcNAc(b1-4)GlcNAc
In short: as §1

[3] = target: Fuc(a1-2)Gal(b1-4)GlcNAc(b1-3)Gal(b1-4)GlcNAc(b1-3)Gal(b1-4)GlcNAc
In short: as §1

[4] = target: Fuc(a1-2)Gal(b1-4)GlcNAc(b1-3)GalNAc
In short: as §1

[5] = target: Fuc(a1-2)Gal(b1-4)GlcNAc(b1-3)[Fuc(a1-2)Gal(b1-4)GlcNAc(b1-6)]GalNAc
In short: as §1

[6] = target: Fuc(a1-2)Gal(b1-4)GlcNAc(b1-3)[Fuc(a1-3)[Gal(b1-4)]GlcNAc(b1-6)]Gal(b1-4)Glc
In short: as §1

[7] = target: Fuc(a1-2)Gal(b1-4)GlcNAc(b1-6)GalNAc
In short: as §1

[8] = target: Fuc(a1-2)Gal(b1-4)GlcNAc6S
In short: as §1

[9] = target: Fuc(a1-2)Gal(b1-4)[Fuc(a1-3)]GalNAc(b1-3)Gal(b1-4)[Fuc(a1-3)]GlcNAc
In short: as §1

[10] = target: Fuc(a1-2)Gal(b1-4)[Fuc(a1-3)]GalNAc(b1-3)Gal(b1-4)[Fuc(a1-3)]GlcNAc(b1-3)Gal(b1-4)[Fuc(a1-3)]GalNAc
In short: as §1

[11] = target: Fuc(a1-2)Gal(b1-4)[Fuc(a1-3)]GlcNAc
In short: as §1

[12] = target: Fuc(a1-2)Gal(b1-4)[Fuc(a1-3)]GlcNAc(b1-2)Man(a1-3)[Fuc(a1-2)Gal(b1-4)[Fuc(a1-3)]GlcNAc(b1-2)Man(a1-6)]Man(b1-4)GlcNAc(b1-4)[Fuc(a1-6)]GlcNAc
In short: as §1

[13] = target: Fuc(a1-2)Gal(b1-4)[Fuc(a1-3)]GlcNAc(b1-2)[Fuc(a1-2)Gal(b1-4)[Fuc(a1-3)]GlcNAc(b1-4)]Man(a1-3)[Fuc(a1-2)Gal(b1-4)[Fuc(a1-3)]GlcNAc(b1-2)Man(a1-6)]Man(b1-4)GlcNAc(b1-4)GlcNAc
In short: as §1

[14] = target: Fuc(a1-2)Gal(b1-4)[Fuc(a1-3)]GlcNAc(b1-3)Gal(b1-4)[Fuc(a1-3)]GlcNAc
In short: as §1

[15] = target: Fuc(a1-2)Gal(b1-4)[Fuc(a1-3)]GlcNAc(b1-3)Gal(b1-4)[Fuc(a1-3)]GlcNAc(b1-3)Gal(b1-4)[Fuc(a1-3)]GlcNAc
In short: as §1

[16] = target: Fuc(a1-2)Gal(b1-4)[Fuc(a1-3)]GlcNAc(b1-3)GalNAc
In short: as §1

[17] = target: Fuc(a1-2)Gal(b1-4)[Fuc(a1-3)]GlcNAc(b1-3)[Neu5Ac(a2-6)Gal(b1-4)GlcNAc(b1-6)]Gal(b1-4)Glc
In short: as §1

[18] = target: Fuc(a1-2)Gal3S(b1-4)GlcNAc
In short: as §1

[19] = target: Fuc(a1-2)Gal6S(b1-3)GlcNAc
In short: as §1

[20] = target: Fuc(a1-2)Gal6S(b1-3)GlcNAc6S
In short: as §1

[21] = target: Fuc(a1-2)Gal6S(b1-4)Glc
In short: as §1

[22] = target: Fuc(a1-2)Gal6S(b1-4)Glc6S
In short: as §1

[23] = target: Fuc(a1-2)Gal6S(b1-4)GlcNAc
In short: as §1

[24] = target: Fuc(a1-2)GlcNAc
In short: as §1

[25] = target: Fuc(a1-2)[Gal(a1-3)]Gal
In short: as §1

[26] = target: Fuc(a1-2)[Gal(a1-3)]Gal(b1-3)GalNAc
In short: as §1

[27] = target: Fuc(a1-2)[Gal(a1-3)]Gal(b1-3)GalNAc(b1-3)Gal(a1-4)Gal(b1-4)Glc
In short: as §1

[28] = target: Fuc(a1-2)[Gal(a1-3)]Gal(b1-3)GlcNAc
In short: as §1

[29] = target: Fuc(a1-2)[Gal(a1-3)]Gal(b1-3)GlcNAc(b1-2)Man(a1-3)[Fuc(a1-2)[Gal(a1-3)]Gal(b1-3)GlcNAc(b1-2)Man(a1-6)]Man(b1-4)GlcNAc(b1-4)GlcNAc
In short: as §1

[30] = target: Fuc(a1-2)[Gal(a1-3)]Gal(b1-3)GlcNAc(b1-2)Man(a1-3)[Fuc(a1-2)[Gal(a1-3)]Gal(b1-3)GlcNAc(b1-2)Man(a1-6)]Man(b1-4)GlcNAc(b1-4)[Fuc(a1-6)]GlcNAc
In short: as §1

[31] = target: Fuc(a1-2)[Gal(a1-3)]Gal(b1-3)GlcNAc(b1-3)GalNAc
In short: as §1

[32] = target: Fuc(a1-2)[Gal(a1-3)]Gal(b1-3)GlcNAc(b1-6)GalNAc
In short: as §1

[33] = target: Fuc(a1-2)[Gal(a1-3)]Gal(b1-4)Glc
In short: as §1

[34] = target: Fuc(a1-2)[Gal(a1-3)]Gal(b1-4)GlcNAc
In short: as §1

[35] = target: Fuc(a1-2)[Gal(a1-3)]Gal(b1-4)GlcNAc(b1-2)Man
In short: as §1

[36] = target: Fuc(a1-2)[Gal(a1-3)]Gal(b1-4)GlcNAc(b1-2)Man(a1-3)[Fuc(a1-2)[Gal(a1-3)]Gal(b1-4)GlcNAc(b1-2)Man(a1-6)]Man(b1-4)GlcNAc(b1-4)GlcNAc
In short: as §1

[37] = target: Fuc(a1-2)[Gal(a1-3)]Gal(b1-4)GlcNAc(b1-2)Man(a1-3)[Fuc(a1-2)[Gal(a1-3)]Gal(b1-4)GlcNAc(b1-2)Man(a1-6)]Man(b1-4)GlcNAc(b1-4)[Fuc(a1-6)]GlcNAc
In short: as §1

[38] = target: Fuc(a1-2)[Gal(a1-3)]Gal(b1-4)GlcNAc(b1-3)GalNAc
In short: as §1

[39] = target: Fuc(a1-2)[Gal(a1-3)]Gal(b1-4)GlcNAc(b1-6)GalNAc
In short: as §1

[40] = target: Fuc(a1-2)[Gal(a1-3)]Gal(b1-4)[Fuc(a1-3)]Glc
In short: as §1

[41] = target: Fuc(a1-2)[Gal(a1-3)]Gal(b1-4)[Fuc(a1-3)]GlcNAc
In short: as §1

[42] = target: Fuc(a1-2)[Gal(a1-3)]Gal(b1-4)[Fuc(a1-3)]GlcNAc(b1-3)GalNAc
In short: as §1

[43] = target: Fuc(a1-2)[Gal(a1-4)]Gal(b1-4)GalNAc
In short: as §1

[44] = target: Fuc(a1-2)[Gal(a1-4)]Gal(b1-4)GlcNAc
In short: as §1

[45] = target: Fuc(a1-2)[GalNAc(a1-3)]Gal
In short: as §1

B1: EEA (Euonymus europaeus) (protein)
chain: MASTIIATGPTYRVYCRAAPNYNMIVGKGVAFLAPIDETNELQYWYKDDTYSYIKDEAGLPAFSLVNKATGLTLKHSNHHPVPVKLVTYNPNVVDESVLWSQADDRGDGYSAIRSLTNPASHLEAAPLNDWSYNGAIIMGGVWIDAYNQQWKIEPHTG
[1]
  glycan array binding signal (z-score): 1.3
[2]
  glycan array binding signal (z-score): 0.832
[3]
  glycan array binding signal (z-score): 1.22
[4]
  glycan array binding signal (z-score): -0.283
[5]
  glycan array binding signal (z-score): -0.158
[6]
  glycan array binding signal (z-score): 0.102
[7]
  glycan array binding signal (z-score): -0.104
[8]
  glycan array binding signal (z-score): 0.323
[9]
  glycan array binding signal (z-score): -0.359
[10]
  glycan array binding signal (z-score): 0.088
[11]
  glycan array binding signal (z-score): -0.144
[12]
  glycan array binding signal (z-score): -0.058
[13]
  glycan array binding signal (z-score): -0.076
[14]
  glycan array binding signal (z-score): -0.228
[15]
  glycan array binding signal (z-score): -0.187
[16]
  glycan array binding signal (z-score): 0.023
[17]
  glycan array binding signal (z-score): -0.27
[18]
  glycan array binding signal (z-score): -0.047
[19]
  glycan array binding signal (z-score): -0.278
[20]
  glycan array binding signal (z-score): -0.003
[21]
  glycan array binding signal (z-score): -0.168
[22]
  glycan array binding signal (z-score): -0.155
[23]
  glycan array binding signal (z-score): -0.189
[24]
  glycan array binding signal (z-score): -0.153
[25]
  glycan array binding signal (z-score): 1.79
[26]
  glycan array binding signal (z-score): 3.44
[27]
  glycan array binding signal (z-score): 2.51
[28]
  glycan array binding signal (z-score): 5.83
[29]
  glycan array binding signal (z-score): 5.22
[30]
  glycan array binding signal (z-score): 3.76
[31]
  glycan array binding signal (z-score): 2.63
[32]
  glycan array binding signal (z-score): 3.77
[33]
  glycan array binding signal (z-score): 4.49
[34]
  glycan array binding signal (z-score): 6.17
[35]
  glycan array binding signal (z-score): 3.94
[36]
  glycan array binding signal (z-score): 11.4
[37]
  glycan array binding signal (z-score): 5.12
[38]
  glycan array binding signal (z-score): 4.01
[39]
  glycan array binding signal (z-score): -0.195
[40]
  glycan array binding signal (z-score): 0.029
[41]
  glycan array binding signal (z-score): -0.181
[42]
  glycan array binding signal (z-score): -0.186
[43]
  glycan array binding signal (z-score): -0.067
[44]
  glycan array binding signal (z-score): -0.233
[45]
  glycan array binding signal (z-score): -0.23
